# From PubChem BioAssay AID686978 (National Center for Advancing Translational Sciences (NCATS), 2013)
# In all, about 420,000 compounds went through this assay and about 64,000 (15%) were called active. Inconclusive means that the source gave no clear call. Such entries were picked first, then a sample of the others. Calls come from the whole dose curve; as a rule, active = well fitted inhibition curve with a large enough effect; inconclusive = small, poorly fitted or top-dose-only effect; inactive = flat fitted curve, though single readings scatter. Potencies of inconclusive entries are left out as doubtful fits.
# Assay: qHTS for Inhibitors of human tyrosyl-DNA phosphodiesterase 1 (TDP1): qHTS in cells in absence of CPT; note: nearly all actives have a fitted effect of over 55% in size
# Settings: DT40 Tdp1-/- hTDP1 cells, no CPT, ATP luminescence, 48 h; activity change, negative = growth inhibition: at 46.2 µM (top of the series)
# Outline: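 Growth kinetics read by CellTiter-Glo luminescence after ≥48 hr at 37 °C. Cells: DT40 Tdp1-/- stably carrying human TDP1, 400 per well, compound exposure in the absence of CPT (DMSO vehicle).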
# % is set by controls: 0 for no effect and ±100 for the full control effect; potency is the fitted concentration of half-maximal effect; tags give direction and shape of the fitted curve.
Compound,"activity change, negative = growth inhibition",Potency
CCCS(=O)(=O)N1CCCC(C(=O)N2CCCCC2)C1 (centres undefined),inactive: 8.18%,
CSc1cccc(NC(=S)N(CCC(C)C)C2CCN(C(C)=O)CC2)c1,,"inconclusive [inhibitor, full curve, poor fit]"
Nc1nc(N)c2c(n1)CN(Cc1ccc(Cl)cc1)C2,,"inconclusive [inhibitor, single point]"
COc1ccc([C@@H](C)NC(=O)CCc2nnc(-c3cc(C)on3)o2)cc1,,"inconclusive [inhibitor, single point]"
CCOc1cc2[nH]c(=S)n(Cc3ccc(C(=O)NCC(OC)OC)cc3)c(=O)c2cc1OCC,inactive: -6.49%,
Cc1ccc(S(=O)(=O)N2CCOCC2)cc1NC(=O)c1cc2c(s1)CCC2,,active: 16.4 µM
CCC1CCCCN1CCCNC(=O)c1cc2c(=O)[nH]c3ccccc3c2n1C (centres undefined),inactive: 9.05%,
COc1ccc(Nc2ncnc3ccc(C)cc23)cc1,,"inconclusive [inhibitor, partial curve]"
CCN(CC)C(=O)C1CCCN(c2ccc([N+](=O)[O-])cc2/C=N/NC(=O)c2cccc(O)c2)C1 (centres undefined),,"inconclusive [inhibitor, single point]"
O=C(Cn1cc(C(=O)c2cccs2)c2ccccc21)Nc1ccc(Br)cc1,,active: 5.8 µM
Cc1nc2c(OCc3ccc(C(F)(F)F)cc3)cccn2c1N(C)C(=O)CCC1CCCC1,,"inconclusive [inhibitor, single point]"
COc1cc(OC)cc(-c2noc([C@@H]3O[C@H](CO)[C@@H](O)[C@H]3O)n2)c1,,"inconclusive [inhibitor, partial curve]"
CCCCNc1cc(NC(C)=O)cc2cc(OC)c(OC)cc12,,"inconclusive [inhibitor, single point]"
O=C(/C=C/c1cn(-c2ccccc2)nc1-c1cccc(Cl)c1)N1CCN(c2ccccn2)CC1,,"inconclusive [inhibitor, single point]"
Cc1cc(N2CCCCC2)nc2ccc(NC(=O)CCC(=O)NCCC(C)C)cc12,inactive: -26.6%,
Cc1ccccc1CSCC(=O)NNC(=S)NCC1CCCO1 (centres undefined),,"inconclusive [inhibitor, single point]"
O=C(N=Nc1c(O)n(Cc2ccccc2)c2ccccc12)c1cc2ccccc2cc1O,,active: 14.6 µM
Cc1cc(C([O-])=C(C(=S)Nc2ccccc2)[n+]2ccccc2)c(C)n1-c1ccccc1,,"inconclusive [inhibitor, single point]"
CCCc1cc(=O)oc2cc(OC(=O)CN3C(=O)NC4(CCCC4)C3=O)ccc12,inactive: -26.8%,
CCCCNC(=O)CSc1nc2ccc(N3CCOCC3)cc2c(=O)n1Cc1ccc(OC)cc1,,"inconclusive [inhibitor, single point]"
CC(NC(=O)c1cc2cc(Br)ccc2oc1=N)c1ccccc1 (centres undefined),,active: 16.4 µM
COc1ccc(S(=O)(=O)N2CCCC2CNC(=O)C(=O)Nc2cccc(F)c2)cc1 (centres undefined),,"inconclusive [inhibitor, partial curve]"
COC(=O)C(NNc1ccccc1)(NC(=O)c1cccc(F)c1)C(F)(F)F (centres undefined),,"inconclusive [inhibitor, single point]"

Compound,"activity change, negative = growth inhibition",Potency
COc1cccc(CN2CCN(CC#Cc3ccccc3)CC2CCO)c1 (centres undefined),,"inconclusive [inhibitor, single point]"
CCOC(=O)C1CCCN(S(=O)(=O)c2c(C)[nH]c(C)c2C(=O)N2CCCC2)C1 (centres undefined),inactive: 27.1%,
CC(C)N(C)C1CCN(C(=O)Nc2ccc(Cl)c(Cl)c2)CC1,,"inconclusive [inhibitor, single point]"
Cc1noc(C)c1S(=O)(=O)Nc1ccc(C(=O)N2CCN(c3ccc(Cl)cc3)CC2)cc1,,active: 16.4 µM
COc1ccc(Oc2ncc3nc(-c4cccc(C#N)c4)c(=O)n(CCC#N)c3n2)cc1,,"inconclusive [inhibitor, single point]"
CCN(CC)S(=O)(=O)c1ccc2c(c1)nc(SCn1nnc3ccccc3c1=O)n2CC,,"inconclusive [inhibitor, partial curve]"
CCN(C(=O)COC(=O)CCCc1nc2ccccc2s1)c1c(N)n(Cc2ccccc2)c(=O)[nH]c1=O,,"inconclusive [inhibitor, single point]"
CCN(CC)S(=O)(=O)c1cc(C(=O)Nc2cc(C)on2)c(Cl)cc1Cl,,"inconclusive [inhibitor, single point]"
CN1CCN(c2ncc3nc(CCc4ccccc4)c(=O)n(Cc4cccs4)c3n2)CC1,,active: 20.6 µM
OC(CNCc1ccccc1F)COc1cccc2ccccc12 (centres undefined),,"inconclusive [inhibitor, single point]"
CCc1nnc(NS(=O)(=O)c2ccc(N=Cc3c(C)[nH]n(-c4ccc(C)c(C)c4)c3=O)cc2)s1,,active: 8.2 µM
O=C(Nc1ccc2snnc2c1)N1CCN(c2ccccc2)CC1,inconclusive: -31.4% [inhibitor],
O=C(CCc1nnc(Cc2ccc3c(c2)OCO3)o1)NCCc1ccccc1Cl,,"inconclusive [inhibitor, single point]"
Cc1ccc2c(c1)C(c1ccccc1)N(C(=O)CC(C)C)CC(=O)N2 (centres undefined),inactive: -16.5%,
Cc1ccc(NNC(=O)c2cc(C)on2)c(C)c1,inactive: -20.9%,
COc1ccccc1N1CCCSC1=Nc1ccccc1,,"inconclusive [inhibitor, partial curve]"
COc1ccc(C(=O)N2CCN(c3cccc(C)c3C)CC2)cc1S(=O)(=O)NC1CC1,,active: 23.1 µM
CCc1ccc([C@@H]2C[C@H]3[C@@H](CN2S(=O)(=O)c2ccc(C)cc2)C(=O)C[C@@H](c2ccccc2)N3S(=O)(=O)c2ccc(C)cc2)cc1,,"inconclusive [inhibitor, single point]"
O=C(Nc1cccc(NC(=O)c2ccccc2)n1)c1ccccc1,,"inconclusive [inhibitor, single point]"
CCCCOc1ccc(CSCCN)cc1Cl,,active: 18.4 µM
Cn1c(CSCc2ccccc2)nnc1SCC(=O)Nc1ccc(C(=O)O)cc1,inactive: 10.2%,
CCC(C)(C)NC(=O)CN(C(=O)CNS(=O)(=O)c1ccc(C)cc1)c1ccc2c(c1)OCCO2,,"inconclusive [inhibitor, single point]"
Cc1cccc(OCc2nnc(SCC(=O)NC3CCCC3)n2C)c1,inactive: -1.87%,

Compound,"activity change, negative = growth inhibition",Potency
CCCc1nc2cc(C)c(Br)c(C)n2c1Cc1ccc(OC)cc1C,,"inconclusive [inhibitor, single point]"
CCOC(=O)CSc1cc(-c2ccccc2)nc2ncnn12,,"inconclusive [inhibitor, single point]"
O=C(COc1ccc(S(=O)(=O)N2CCOCC2)cc1Cl)NCCCn1ccnc1,inactive: -11.4%,
COc1ccc(-c2coc(CCC(=O)N3CCN(c4cc(C)ccc4C)CC3)n2)cc1,,"inconclusive [inhibitor, single point]"
COc1cccc(CNCCCSc2nnnn2C)c1OC,inactive: -10.1%,
COc1ccc(NC(=O)Cn2nnc(-c3ccccc3N)n2)cc1OC,inactive: -11.8%,
CCc1cc2c(cc3c(=O)n(CC(=O)N4CCN(c5ccccn5)CC4)nc(CC)n32)s1,,"inconclusive [inhibitor, single point]"
COc1ccc(C(N)c2csc(Nc3cc(Oc4ccccc4)ncn3)n2)cc1 (centres undefined),,active: 23.1 µM
COc1ccc(NC(=O)CCc2nnc3n(Cc4ccc(C)cc4)c(=O)c4ccccc4n23)cc1,,"inconclusive [inhibitor, full curve, poor fit]"
CCN(CC)S(=O)(=O)c1ccc2c(c1)nc(SCC(=O)N1CCOCC1)n2-c1ccccc1OC,inactive: -27.3%,
CCc1ccc(N(CC)c2ncnc3nc[nH]c23)cc1,,"inconclusive [inhibitor, partial curve]"
O=C(c1ccc2[nH]ccc2c1)N1CCOc2ccc(CN3CCN(c4ccccn4)CC3)cc2C1,,"inconclusive [inhibitor, single point]"
CC(=O)c1ccc(NC(=O)c2ccc3c(Cl)c4c(nc3c2)CCCC4)cc1,,active: 18.4 µM
COC(=O)c1sc2nc(SCc3cccc(Cl)c3)n(N)c(=O)c2c1C,,"inconclusive [inhibitor, single point]"
CCn1cc(C(=O)NCCCN2CC(C)CC(C)C2)c(=O)c2cc(S(=O)(=O)N(C)C)ccc21 (centres undefined),inactive: -2.05%,
O=C1CC2c3ccccc3C1C1C(=O)N(Cc3ccccc3)C(=O)C21 (centres undefined),inactive: -8.44%,
CC[C@@H](C)CN1C(=O)N[C@@H](c2ccccc2)C(C(C)=O)=C1C,inactive: -23.9%,
CCC(=O)Nc1ccccc1C(=O)N1CCN(Cc2ccccc2)CC1,inactive: -24.9%,
C#CCN(C[C@H]1[C@H](OC(=O)NCc2ccc(OC)c(OC)c2)[C@H](OC(=O)NCc2ccc(OC)c(OC)c2)C[C@H]2C(=O)N(c3ccccc3)C(=O)[C@@H]12)S(=O)(=O)c1ccc(C)cc1,inconclusive: -34.4% [inhibitor],
CN(CC(=O)Nc1cccc(S(=O)(=O)N(C)C)c1)Cc1ccccc1,,"inconclusive [inhibitor, single point]"
Cc1cccc(N2CCN(C(=O)c3ccccc3NC(=O)C3CCCCC3C(=O)O)CC2)c1 (centres undefined),,"inconclusive [inhibitor, single point]"
CCS(=O)(=O)c1nc(S(=O)(=O)c2ccc(C)cc2)c(NC)s1,inactive: 2.07%,
CCCCN=C1C([N+](=O)[O-])=CC=C2C1=NC1(CCCCC1)N2O,,"inconclusive [inhibitor, single point]"
